Laboratory results reported in patent EP3057951B1, “METHYLENE LINKED QUINOLINYL MODULATORS OF ROR-GAMMA-T” (Janssen Pharmaceutica NV, priority 2013, dated 2015).

System: IL-17 production by CD4 T cells
Assay: Human Th17 Assay (IL-17 production under Th17 differentiation conditions)
[1] = Homo sapiens, CD4+ T, 72 h, read-out: Human Th17 Assay, IC50, IL-17 production, CD4 T cells, 3 days
[2] = read-out: Human Th17 Assay, IC50, IL-17 production, CD4 T cells, 3 days

IC50 [1]	IC50 [2]	Structure (SMILES)	other results
3 nM		COc1nc2ccc(C(O)(c3cncn3C)c3cncn3C)cc2c(Cl)c1Cc1ccc(C(F)(F)F)cc1 [Example 149, (4-Chloro-2-methoxy-3-(4-(trifluoromethyl)benzyl)quinolin-6-yl)bis(1-methyl-1H-imidazol-5-yl)methanol]	
2 nM		CCc1nc2ccc(C(O)(c3ccc(C)nc3C)c3cnnn3C)cc2c(Cl)c1Cc1ccc(C(F)(F)F)cc1 (single isomer, unassigned) [Example 23c, (4-Chloro-2-ethyl-3-(4-(trifluoromethyl)benzyl)quinolin-6-yl)(2,6-dimethylpyridin-3-yl)(1-methyl-1H-1,2,3-triazol-5-yl)methanol]	
320 nM		COc1nc2ccc(C(O)(c3ccc(C)nc3C)c3cnc(C)n3C)cc2c(Cl)c1Cc1ccc(C(F)(F)F)cc1 (single isomer, unassigned) [Example 57b, (4-Chloro-2-methoxy-3-(4-(trifluoromethyl)benzyl)quinolin-6-yl)(1,2-dimethyl-1H-imidazol-5-yl)(2,6-dimethylpyridin-3-yl)methanol]	
67 nM		CCN(CC)c1nc2ccc(C(O)(c3ccc(Cl)cc3)c3cncn3C)cc2c(C#N)c1Cc1ccc(-n2cccn2)cc1 (single isomer, unassigned) [Example 154b, 3-(4-(1H-pyrazol-1-yl)benzyl)-6-((4-chlorophenyl)(hydroxy)(1-methyl-1H-imidazol-5-yl)methyl)-2-(diethylamino)quinoline4-carbonitrile]	
68 nM		COc1nc2ccc(C(O)(c3cnnn3C)C3CN(C)C3)cc2c(Cl)c1Cc1ccc(C(F)(F)F)cc1 (single isomer, unassigned) [Example 90c, (4-Chloro-2-methoxy-3-(4-(trifluoromethyl)benzyl)quinolin-6-yl)(1-methyl-1H-1,2,3-triazol-5-yl)(1-methylazetidin-3-yl)methanol]	
	36 nM	Cn1cncc1C(O)(c1ccc(C(F)(F)F)nc1)c1ccc2nc(N3CC(F)C3)c(Cc3ccc(-n4cccn4)cc3)c(Cl)c2c1 (single isomer, unassigned) [Example 147c, {4-Chloro-2-(3-fluoroazetidin-1-yl)-3-[4-(1H-pyrazol-1-yl)benzyl]quinolin-6-yl}(1-methyl-1H-imidazol-5-yl)[6-(trifluoromethyl)pyridin-3-yl]methanol]	
	20 nM	COc1nc2ccc(C(O)(c3ccc(C#N)cc3)c3cncn3C)cc2c(C#N)c1Cc1ccc(-n2cncn2)cc1 (single isomer, unassigned) [Example 15c, 3-(4-(1H-1,2,4-Triazol-1-yl)benzyl)-6-((4-cyanophenyl)(hydroxy)(1-methyl-1H-imidazol-5-yl)methyl)-2-methoxyquinoline-4-carbonitrile]	
		COc1nc2ccc(C(N)(c3ccc(Cl)cc3)c3cncn3C)cc2c(Cl)c1Cc1ccc(-n2cccn2)cc1 (stereo not drawn) [Example 118c, (3-(4-(1H-Pyrazol-1-yl)benzyl)4-chloro-2-methoxyquinolin-6-yl)(4-chlorophenyl)(1-methyl-1H-imidazol-5-yl)methanamine•TFA]	IC50 (Homo sapiens, CD4+ T, 72 h, read-out: Human Th17 Assay, IC50): 50 nM
530 nM		Cn1cncc1C(O)(c1ccc(C(F)(F)F)nc1)c1ccc2nc(N3CCOCC3)c(Cc3ccc(-n4cccn4)cc3)c(Cl)c2c1 (single isomer, unassigned) [Example 146b, {4-Chloro-2-morpholin-4-yl-3-[4-(1H-pyrazol-1-yl)benzyl]quinolin-6-yl}(1-methyl-1H-imidazol-5-yl)[6-(trifluoromethyl)pyridin-3-yl]methanol]	
	1.8 nM	CCc1nc2ccc(C(O)(c3cnnn3C)c3cnc(C)n3C)cc2c(Cl)c1Cc1ccc(C(F)(F)F)cc1 (single isomer, unassigned) [Example 25c, (4-Chloro-2-ethyl-3-(4-(trifluoromethyl)benzyl)quinolin-6-yl)(1,2-dimethyl-1H-imidazol-5-yl)(1-methyl-1H-1,2,3-triazol-5-yl)methanol]	
56 nM		COc1nc2ccc(C(O)(c3ccc(Cl)cc3)c3cncn3C)cc2c(C#N)c1Cc1ccc(C(F)(F)F)cc1 (single isomer, unassigned) [Example 55c, 6-((4-Chlorophenyl)(hydroxy)(1-methyl-1H-imidazol-5-yl)methyl)-2-methoxy-3-(4-(trifluoromethyl)benzyl)quinoline-4-carbonitrile]	
82 nM		COc1nc2ccc(C(O)(c3cccnc3)c3ccc(Cl)c(Cl)c3)cc2c(Cl)c1Cc1ccc(-n2cccn2)cc1 (stereo not drawn) [Example 161a, (3-(4-(1H-Pyrazol-1-yl)benzyl)-4-chloro-2-methoxyquinolin-6-yl)(3,4-dichlorophenyl)(pyridin-3-yl)methanol]	
89 nM		COc1nc2ccc(C(O)(c3ccc(F)cc3)c3cncn3C)cc2c(Cl)c1Cc1ccc(-n2cccn2)cc1 (stereo not drawn) [Example 160a, (3-(4-(1H-Pyrazol-1-yl)benzyl)-4-chloro-2-methoxyquinolin-6-yl)(4-fluorophenyl)(1-methyl-1H-imidazol-5-yl)methanol]	
	2.5 nM	COc1nc2ccc(C(O)(c3cnnn3C)c3cnc(C)n3C)cc2c(C#N)c1Cc1ccc(C(F)(F)F)nc1 (single isomer, unassigned) [Example 44c, 6-((1,2-Dimethyl-1H-imidazol-5-yl)(hydroxy)(1-methyl-1H-1,2,3-triazol-5-yl)methyl)-2-methoxy-3-((6-(trifluoromethyl)pyridin-3-yl)methyl)quinoline-4-carbonitrile]	
	30 nM	COc1nc2ccc(C(O)(c3ccc(C#N)cc3)c3cncn3C)cc2c(Cl)c1Cc1ccc(-n2cncn2)cc1 (single isomer, unassigned) [Example 14c, 4-((3-(4-(1H-1,2,4-Triazol-1-yl)benzyl)-4-chloro-2-methoxyquinolin-6-yl)(hydroxy)(1-methyl-1H-imidazol-5-yl)methyl)benzonitrile]	
	220 nM	Cc1cc(C(O)(c2ccc(C(F)(F)F)nc2)c2cncn2C)cc2c(Cl)c(Cc3ccc(-n4cccn4)cc3)c(N3CCC3)nc12 (single isomer, unassigned) [Example 137b, {2-Azetidin-1-yl-4-chloro-8-methyl-3-[4-(1H-pyrazol-1-yl)benzyl]quinolin-6-yl}(1-methyl-1H-imidazol-5-yl)[6-(trifluoromethyl)pyridin-3-yl]methanol]	
	10 nM	COc1nc2ccc(C(O)(c3ccccc3)C3CCN(C(C)=O)CC3)cc2c(Cl)c1Cc1ccc(-n2ccnc2)cc1 (stereo not drawn) [Example 16c]	
300 nM		COc1nc2ccc(C(O)(c3cncn3C)C3CCOCC3)cc2c(C#N)c1Cc1ccc(-n2cccn2)cc1 (stereo not drawn) [Example 2b, 3-(4-(1H-Pyrazol-1-yl)benzyl)-6-(hydroxy(1-methyl-1H-imidazol-5-yl)(tetrahydro-2H-pyran-4-yl)methyl)-2-methoxyquinoline-4-carbonitrile]	
	560 nM	COc1nc2ccc(C(O)(c3ccc(C#N)cc3)c3cncn3C)cc2c(Cl)c1Cc1ccc(-n2cncn2)cc1 (single isomer, unassigned) [Example 14b, 4-((3-(4-(1H-1,2,4-Triazol-1-yl)benzyl)-4-chloro-2-methoxyquinolin-6-yl)(hydroxy)(1-methyl-1H-imidazol-5-yl)methyl)benzonitrile]	
	2600 nM	CC(=O)N1CCC(C(O)(c2ccc3nc(C(F)(F)F)c(Cc4ccccc4)c(Cl)c3c2)c2cncn2C)CC1 (single isomer, unassigned) [Example 115b, 1-(4-((3-Benzyl-4-chloro-2-(trifluoromethyl)quinolin-6-yl)(hydroxy)(1-methyl-1H-imidazol-5-yl)methyl)piperidin-1-yl)ethanone•TFA]	
	3 nM	COc1nc2ccc(C(O)(c3cnnn3C)C3CCOCC3)cc2c(Cl)c1Cc1ccc(C(F)(F)F)cc1 (single isomer, unassigned) [Example 85b, (4-Chloro-2-methoxy-3-(4-(trifluoromethyl)benzyl)quinolin-6-yl)(1-methyl-1H-1,2,3-triazol-5-yl)(tetrahydro-2H-pyran-4-yl)methanol]	
200 nM		COc1ccc(C(O)(c2cccnc2)c2ccc3nc(OC)c(Cc4ccc(-n5cccn5)cc4)c(Cl)c3c2)cc1OC (stereo not drawn) [Example 159a, (3-(4-(1H-Pyrazol-1-yl)benzyl)-4-chloro-2-methoxyquinolin-6-yl)(3,4-dimethoxyphenyl)(pyridin-3-yl)methanol]	
690 nM		COc1c(Cc2ccccc2)c(C(F)(F)F)nc2ccc(C(O)(c3ccccn3)c3cncn3C)cc12 (single isomer, unassigned) [Example 98c, (3-Benzyl-4-methoxy-2-(trifluoromethyl)quinolin-6-yl)(1-methyl-1H-imidazol-5-yl)(pyridin-2-yl)methanol]	
	15 nM	COc1nc2ccc(C(O)(c3cnnn3C)C3CCOCC3)cc2c(Cl)c1Cc1ccc(C(F)(F)F)cc1 (single isomer, unassigned) [Example 85c, (4-Chloro-2-methoxy-3-(4-(trifluoromethyl)benzyl)quinolin-6-yl)(1-methyl-1H-1,2,3-triazol-5-yl)(tetrahydro-2H-pyran-4-yl)methanol]	
	180 nM	CNC(c1ccc2nc(OC)c(Cc3ccc(C(F)(F)F)cc3)c(Cl)c2c1)(c1ccc(C)nc1C)c1cnnn1C (single isomer, unassigned) [Example 121c, 1-(4-Chloro-2-methoxy-3-(4-(trifluoromethyl)benzyl)quinolin-6-yl)-1-(2,6-dimethylpyridin-3-yl)-N-methyl-1-(1-methyl-1H-1,2,3-triazol-5-yl)methanamine•TFA]	
44 nM		COc1nc2ccc(C(O)(c3cnc(C)n3C)C3CCOCC3)cc2c(Cl)c1Cc1ccc(C(F)(F)F)cc1 (single isomer, unassigned) [Example 86c, (4-Chloro-2-methoxy-3-(4-(trifluoromethyl)benzyl)quinolin-6-yl)(1,2-dimethyl-1H-imidazol-5-yl)(tetrahydro-2H-pyran-4-yl)methanol]	
0.98 nM		COc1nc2ccc(C(O)(c3ccc(C)nc3C)c3cnnn3C)cc2c(Cl)c1Cc1ccc(-n2cccn2)cc1 (single isomer, unassigned) [Example 17c, (3-(4-(1H-Pyrazol-1-yl)benzyl)-4-chloro-2-methoxyquinolin-6-yl)(2,6-dimethylpyridin-3-yl)(1-methyl-1H-1,2,3-triazol-5-yl)methanol]	

Structures can show the parent of a compound that is named as a salt. Where two headings read alike, the source gives them in different places.
